Several values for one entry are separate records, joined by “and”; a condition that tells them apart may be missing. Identical values can stand only once. Hit rate of the full screen: of about 420,000 compounds, about 75 (0.02%) were called active. The inconclusive results got no clear call from the source; some entries with a clear call stand among them for comparison. The call rests on the fitted dose curve; in most records, active means well fitted activation curve with a large enough effect; inconclusive means small, poorly fitted or top-dose-only effect; inactive means no such curve, though single readings can be large or run the other way. Potencies of inconclusive entries are doubtful fits and often do not repeat.
experiment: qHTS for Inducers of the Endoplasmic Reticulum Stress Response (ERSR) in Human Glioma: qHTS; settings: U87-MG GRP78 promoter luciferase reporter, 16 h; activation: stronger effect = higher value; further: nearly all actives have a fitted effect of over 35% in size; on activation: % of control where 0% means no effect
How it was run: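 Stably transfected U87-MG human glioma cells carrying a GRP78-based luminescent sensor were seeded at 1000 cells/well, pin-dosed with compounds and incubated 16 h. Luciferase reagent was then added, and end-point luminescence was read after 10 min at room temperature.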
Potency means the concentration at half of the fitted maximal effect; tags describe the fitted curve by direction and shape.

SMILES	Potency	activation
Cc1ccc2nc(SCC(=O)Nc3cc([N+](=O)[O-])ccc3F)[nH]c2c1	inconclusive: 50.1 µM [activator, single point]	
O=C1CC(c2ccc(O)c(O)c2)Oc2cc(O)cc(O)c21 (centres undefined)	inconclusive: 28.2 µM [activator, partial curve] and inconclusive: 50.1 µM [activator, single point]	
COc1ccc(OC)c(C(=O)/C=C/c2ccccc2C(F)(F)F)c1	inconclusive: 11.2 µM [activator, single point]	
COc1ccc(N=C2C(=Nc3ccc(OC)cc3)N(c3ccccc3)C(=S)N2C(=O)c2ccc(Cl)cc2)cc1	inconclusive: 12.6 µM [activator, partial curve, poor fit]	
COCCN(CCOC)c1nc(-c2ccc([N+](=O)[O-])cc2)nc2ccccc12		inactive: 0.491%
COc1ccc(OCC(=O)N/N=C/c2ccc(N(C)C)cc2)cc1		inactive: 5.32%
O=c1oc2ccccc2c(O)c1/C=C1\C=Nc2ccccc21	inconclusive: 28.2 µM [activator, single point]	
Cc1cc(C)cc(-n2ncc3c2CCCC3NC(=O)c2csnn2)c1 (centres undefined)	inconclusive: 2 µM [activator, full curve, poor fit]	
COc1ccc(NC(=O)C(Cl)=C(Cl)Cl)cn1	inconclusive: 44.7 µM [activator, single point]	
COc1ccccc1CC(Cc1nc2ccccc2[nH]1)c1nc2ccccc2[nH]1 (centres undefined)		inactive: -4.21% and inactive: -6%
S=C(NCc1ccccc1)Nc1ccc2ccccc2c1	inconclusive: 3.16 µM [activator, full curve, poor fit]	
Cc1ccc(-c2c(C)sc(NC(=O)C3C4CCC(O4)C3C(=O)O)c2C(=O)OC(C)C)cc1 (centres undefined)	inconclusive: 22.4 µM [activator, single point]	
Cc1ccc(CC(=O)Nc2ccc(OC(F)F)c(Cl)c2)cc1C	inconclusive: 28.2 µM [activator, single point]	
Cc1cc(C)c(C#N)c(SCc2nc3ccccc3[nH]2)n1	inconclusive: 5.62 µM [activator, full curve, poor fit]	
C/C(=N\Nc1nc2ccccc2[nH]1)c1cc2ccccc2o1	inconclusive: 44.7 µM [activator, partial curve, poor fit]	
CCNc1ncc2nc(-c3cc(F)cc(F)c3)c(=O)n(CCc3ccccc3)c2n1		inactive: -3.79%
O=C(COC(=O)CC1Sc2ccccc2NC1=O)NCc1ccccc1 (centres undefined)		inactive: -3.95%
CCOC(=O)c1c(NC(NC(C)=O)C(Cl)(Cl)Cl)sc(C(C)=O)c1C (centres undefined)	inconclusive: 11.2 µM [activator, full curve, poor fit]	
CN(C)c1ccc(C=C2C=C(c3ccccc3)OC2=O)cc1	inconclusive: 50.1 µM [activator, partial curve, poor fit]	
O=C(NCCCn1ccnc1)c1cc(-c2cccs2)on1	inconclusive: 2.82 µM [activator, full curve, poor fit]	
COc1ccc(OC)c(-c2csc(NC(=O)Cc3ccc(F)cc3)n2)c1		inactive: -2.11%
Cc1cccc(CNc2ccnc(-c3cccc(C#N)c3)n2)c1	inconclusive: 50.1 µM [activator, single point]	

SMILES	Potency	activation
COc1ccc(NC(=O)CSc2nc(O)c(Cc3ccccc3)c(=O)[nH]2)cc1		inactive: -1.78%
Cc1ccc(CNC(=O)CCn2cc(-c3ccc(F)cc3)nc2-c2ccncc2)cc1		inactive: -1.98%
CC(=O)Oc1ccc(C(=O)OCC(=O)c2c(N)n(C)c(=O)n(C)c2=O)cc1OC(C)=O		inactive: -5.13%
C/C=C1\NC(=O)[C@H]2CSSCC/C=C\[C@H](CC(=O)N[C@H](C(C)C)C(=O)N2)OC(=O)C(C(C)C)NC1=O (some centres undefined)	inconclusive: 25.1 µM [activator, partial curve, poor fit]	
Cc1ccc(Cl)cc1NC(=O)CSc1nc(C)c(C)c(C)c1C#N	inconclusive: 28.2 µM [activator, single point]	
COc1ccc(Br)cc1C1NC(c2ccc3c(c2)OCO3)=CC(c2cc(Cl)ccc2O)N1 (centres undefined)	inconclusive: 22.4 µM [activator, single point]	
Cc1ccc2oc(Nc3nc(-c4ccccc4)cc(=O)[nH]3)nc2c1	inconclusive: 44.7 µM [activator, partial curve, poor fit]	
COc1ccc(CNC(=O)c2c(Nc3ccccc3C)sc(C(=O)c3ccccc3)c2N)cc1	inconclusive: 28.2 µM [activator, full curve, poor fit]	
COc1ccc(-n2cnc3cc(NS(=O)(=O)c4ccccc4)ccc32)cc1	inconclusive: 7.94 µM [activator, partial curve, poor fit]	
COc1cc(C(C#N)N2CCC(c3ccccc3)=N2)ccc1O (centres undefined)	inconclusive: 50.1 µM [activator, single point]	
COc1cc(/C=C(\C#N)C(=O)Nc2nnc(C(F)(F)F)s2)ccc1OCc1ccc(C(F)(F)F)cc1C(F)(F)F	inconclusive: 52.1 µM [activator, partial curve, poor fit]	
CC1CCCCC1NC(=O)Cn1nnc(-c2ccc(Cl)cc2)n1 (centres undefined)	inconclusive: 5.01 µM [activator, single point]	
Oc1ccc(CCNc2c3ccccc3nc3ccccc23)cc1O	inconclusive: 50.1 µM [activator, single point]	
O=C(NCc1ccccc1)c1cc(C2CCCN(S(=O)(=O)c3cccs3)C2)on1 (centres undefined)	inconclusive: 28.2 µM [activator, single point]	
Cc1ccc(Nc2cc(C)nn2-c2nc(C)cc(=O)[nH]2)cc1	inconclusive: 2.24 µM [activator, full curve, poor fit]	
Cc1ccc(NC(=O)c2ccc(NCC3CCCO3)c([N+](=O)[O-])c2)cc1Cl (centres undefined)		inactive: -4.17%
Cn1c(=O)c2c(nc(NCC3CCCO3)n2C)n(C)c1=O (centres undefined)		inactive: -4.91%
O=C(Cc1ccccc1)NCC(=O)N1CCc2ccccc2C1	inconclusive: 63.1 µM [activator, single point]	
C/C(=N\NC(=O)c1ccccc1O)C1CC1	inconclusive: 8.91 µM [activator, partial curve, poor fit]	
CCCCCOC(=O)c1c(N)n(CCOC)c2nc3ccccc3nc12		inactive: -1.89%
O=C(O)c1ccc2c3c(ncnc13)-c1ccccc1C2=O	inconclusive: 44.7 µM [activator, partial curve, poor fit]	
COC(=O)c1ccc(NC(=O)CCCCCn2nnc3ccccc3c2=O)cc1	inconclusive: 22.4 µM [activator, single point]	

SMILES	Potency	activation
Nc1c(C(=O)c2ccccc2)sc2nsc(SCCN3CCCC3)c12	inconclusive: 7.94 µM [activator, partial curve, poor fit]	
Oc1ccccc1C1CC(c2cccs2)=NC(c2cccc(Br)c2)N1 (centres undefined)	inconclusive: 20 µM [activator, single point]	
COc1ccccc1Nc1nc(C)c(C(=O)Nc2ccccc2)s1	inconclusive: 28.2 µM [activator, single point]	
COc1ccc(C(=O)Nc2ncc(C)s2)cc1S(=O)(=O)N1CCOCC1		inactive: 1.21%
Cc1ccc(NC(=S)NC(=O)C2CCC2)cc1C	inconclusive: 2.24 µM [activator, partial curve, poor fit]	
NNC(=O)c1cc(O)c(O)c(O)c1		inactive: -3.82%
CCOC(=O)C1=C(C2=CCCCC2)c2ccc(OC)cc2N(S(=O)(=O)C(F)(F)F)C1C(=O)OCC (centres undefined)	inconclusive: 14.1 µM [activator, single point]	
CSCCC(c1nnnn1C(C)(C)C)N1CCN(C/C=C/c2ccccc2)CC1 (centres undefined)		inactive: -4.33%
Cc1cccc(-n2cc(-c3ccccc3)c3c(=O)[nH]cnc32)c1		inactive: -0.167%
C=CCN1C(=O)NC(c2ccccc2)(C(F)(F)F)S/C1=C(\C#N)c1nnc(N2CCOCC2)n1-c1ccccc1 (centres undefined)	inconclusive: 50.1 µM [activator, single point]	
COc1ccc2nc(C)cc(SCC(=O)NNC(=O)COc3ccccc3)c2c1		inactive: -4.26%
CCOc1cc(/C=N/NC(=O)c2cc(-c3ccccc3)nc3ccccc23)ccc1O	inconclusive: 11.2 µM [activator, single point]	
CN(C)[C@H]1N(C(=O)c2ccc(Br)cc2)N=C2c3ccccc3S(=O)(=O)N21	inconclusive: 14.1 µM [activator, single point]	
COc1ccc2c(c1)c(C(=O)N/N=C/c1ccc(O)c(O)c1)c(C)n2C	inconclusive: 44.7 µM [activator, single point]	
COc1cc(N=c2ssnc2Cl)c(OC)cc1Cl	inconclusive: 28.2 µM [activator, single point]	
CCN(CC)CCNC(=O)c1cc2c(-c3ccc(Cl)cc3)nn(C)c2s1	inconclusive: 50.1 µM [activator, single point]	
N#C/C(=C(/O)CCl)c1nc2c(s1)CCc1ccccc1-2	inconclusive: 12.6 µM [activator, full curve, poor fit]	
CNc1cc(CS(=O)c2ccccc2)nc(-c2ccccc2)n1 (centres undefined)		inactive: -2.15%
COc1ccc(CNc2nc(-c3ccc(N(C)C)cc3)nc3ccccc23)c(OC)c1		inactive: -8.66%
COc1cc(C(=O)Nc2nonc2-c2ccc(Cl)cc2)cc(OC)c1OC	inconclusive: 50.1 µM [activator, single point]	

Reference: PubChem BioAssay AID602332 (National Center for Advancing Translational Sciences (NCATS), 2012)
